# The whole screen tested about 310,000 compounds, of which about 14,000 (4.5%) showed an effect of 50% or more. Effects have a minus sign here. The list shows a part of the results.
# Target: human ether-à-go-go-related gene (hERG) potassium channel (human, UniProt Q12809)
# Test: primary screen, population patch clamp on CHO cells stably expressing hERG
# 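Also: peak tail current of the secondary pulse compared with the same well before compound.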
# Sequence of human ether-à-go-go-related gene (hERG) potassium channel (Q12809 whole entry, looked up): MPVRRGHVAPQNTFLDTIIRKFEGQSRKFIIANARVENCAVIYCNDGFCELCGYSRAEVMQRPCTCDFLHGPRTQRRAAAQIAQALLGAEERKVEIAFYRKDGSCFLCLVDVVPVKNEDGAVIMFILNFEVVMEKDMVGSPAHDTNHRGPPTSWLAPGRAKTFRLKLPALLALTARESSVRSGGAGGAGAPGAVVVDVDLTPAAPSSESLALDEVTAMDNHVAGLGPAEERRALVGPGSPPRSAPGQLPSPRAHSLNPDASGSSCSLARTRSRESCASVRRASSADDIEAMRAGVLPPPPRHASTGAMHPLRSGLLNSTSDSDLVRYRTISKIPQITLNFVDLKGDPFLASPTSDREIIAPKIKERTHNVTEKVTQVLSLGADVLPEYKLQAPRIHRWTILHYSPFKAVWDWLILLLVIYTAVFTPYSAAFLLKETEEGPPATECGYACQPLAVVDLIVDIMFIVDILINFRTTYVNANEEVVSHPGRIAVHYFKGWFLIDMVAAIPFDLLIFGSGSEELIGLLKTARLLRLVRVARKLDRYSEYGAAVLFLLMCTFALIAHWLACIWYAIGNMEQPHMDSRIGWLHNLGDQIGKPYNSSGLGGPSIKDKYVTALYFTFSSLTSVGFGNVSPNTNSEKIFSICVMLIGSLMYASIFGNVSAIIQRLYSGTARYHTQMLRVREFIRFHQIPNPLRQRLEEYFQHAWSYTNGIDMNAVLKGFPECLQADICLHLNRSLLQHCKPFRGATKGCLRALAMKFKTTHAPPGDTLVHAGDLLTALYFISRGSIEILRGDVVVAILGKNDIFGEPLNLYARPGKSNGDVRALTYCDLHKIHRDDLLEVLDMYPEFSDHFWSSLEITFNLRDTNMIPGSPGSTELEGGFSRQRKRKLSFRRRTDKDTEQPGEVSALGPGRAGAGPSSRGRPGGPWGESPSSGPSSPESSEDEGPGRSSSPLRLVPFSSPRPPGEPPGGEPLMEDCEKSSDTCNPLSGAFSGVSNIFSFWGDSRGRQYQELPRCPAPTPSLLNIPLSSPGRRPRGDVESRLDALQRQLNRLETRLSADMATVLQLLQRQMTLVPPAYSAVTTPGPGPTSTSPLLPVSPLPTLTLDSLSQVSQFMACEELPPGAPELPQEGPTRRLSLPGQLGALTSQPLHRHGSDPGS
row,Structure (SMILES),"hERG current change (%, negative = inhibition) at 10uM [%]"
1,CCN(CC)CCOC(=O)c1cccc(Br)c1.Cl,-40.6
2,COc1ccccc1N1CCN(C(=O)c2ccc3c(=O)n(Cc4ccc5c(c4)OCO5)c(=O)[nH]c3c2)CC1,7.52
3,COc1ccc(NC(=S)N2CCC(c3ccccc3)C2)cc1 (centres unmarked),-3.39
4,CCCC(=O)Nc1cc2c3c(c1)C(C)C(=O)N3CCC2 (centres unmarked),18.5
5,O=C(CSc1ccc(-c2cccc([N+](=O)[O-])c2)nn1)NC1CCCC1,-4.51
6,Cc1ccc(C)c(OCC(=O)Nc2cccc(S(=O)(=O)NC3=NCCCCC3)c2)c1,-6.6
7,NC(=O)CN1C(=O)C(O)(CC(=O)/C=C\c2ccc3c(c2)OCO3)c2ccccc21 (centres unmarked),19.5
8,Cc1cccc(Cn2c(C(C)(C)C)cc3cccnc32)c1,-46.8
9,CN(C(=O)COC(=O)c1cc([N+](=O)[O-])ccc1Sc1ccccc1)C1CCS(=O)(=O)C1 (centres unmarked),-9.16
10,C#CCn1c(O)c(N=NC(=O)CNC(=O)c2cccnc2)c2ccccc21,-12.3
11,CCOC(=O)/C(C#N)=C/C=C1/C=CC=CN1C,3.01
12,COc1ccc(-n2nnnc2-c2cccc(OC)c2)cc1,-13.2
13,Cc1c(NC(=O)CN2C(=O)c3cccc4cccc2c34)c(=O)n(-c2ccccc2)n1C,4.55
14,COc1ccc(C(=O)N2CCc3c([nH]c4ccccc34)C2C(F)(F)F)cc1 (centres unmarked),2.33
15,CS(=O)(=O)N(CC(=O)N1CCCC1)c1cc(C(F)(F)F)ccc1Cl,-7.58
16,CCOC(=O)c1c(NC(=S)Nc2cccnc2)sc(C)c1C,11.6
17,Cc1ccc(NC(=O)CCSc2nnc(C)s2)cc1,10.2
18,Cn1cc(Cl)c(C(=O)Nc2nccs2)n1,7.94
19,COc1cccc(/C=N/NC(=O)c2cccs2)c1,-6.47
20,Cc1nc(Nc2ccncc2)c2oc3ccccc3c2n1,-18.7
21,CCOC(=O)C1CCN(C(=O)c2cnn3c(C)cc(C)nc23)CC1,3.65
22,CSc1ccc(C2c3[nH]c4ccccc4c3CCN2C(=O)c2cc(C)n(C)n2)cc1 (centres unmarked),32.6
23,Cc1ccc(C)c(C(=O)Nc2nc3ccccc3[nH]2)c1,25.9

row,Structure (SMILES),"hERG current change (%, negative = inhibition) at 10uM [%]"
1,C=CCC1c2cccc(C(=O)OC)c2C(=O)N1c1ccccc1 (centres unmarked),10.9
2,Cc1ccc(C(=O)NCc2ccncc2)cc1S(=O)(=O)N1CCOCC1,-2.64
3,COc1cc(CCC(=O)Nc2nccs2)cc(OC)c1OC,3.1
4,O=C(c1ccncc1)N1N=C(c2ccc(Br)cc2)CC1c1ccccc1O (centres unmarked),0.25
5,COC(=O)C1=C(C)Nc2nnnn2C1c1cc(OC)ccc1OC (centres unmarked),12.4
6,CCOC(=O)c1c(C)c(C(=O)NCC2CCCO2)c(C)n1CC (centres unmarked),-4.06
7,O=c1ccc(-c2ccccc2)nn1Cc1ccc(Cl)cc1,2.52
8,CN(c1ccccc1)c1nc(N)c([N+](=O)[O-])c(N2CCCCCC2)n1,9.37
9,Cc1cc(C)c(S(=O)(=O)N2CCN(CCO)CC2)c(C)c1,10.9
10,CCCc1cc(=O)oc2c(C)c(OCC(=O)N3C[C@H]4C[C@@H](C3)c3cccc(=O)n3C4)ccc12,-23.9
11,CC(C)Cc1cc(C(=O)Nc2c(F)cc(F)cc2Br)no1,-46.2
12,CC(C)C(=O)Nc1sc2c(c1C#N)CCCCC2,9.53
13,CCOC(=O)Cn1ccc(O)c(Cc2ccc(Cl)cc2Cl)c1=O,-3.25
14,C[C@@H]1C[C@H]2[C@@H]3C[C@H](F)C4=CC(=O)C=C[C@]4(C)[C@@]3(Cl)[C@@H](O)C[C@]2(C)[C@H]1C(=O)COC(=O)C(C)(C)C,16.9
15,COc1ccc(NC(=O)COc2ccccc2Cc2ccccc2)cn1,2.75
16,COc1ccc(NC(=O)/C(C#N)=C/c2ccc[nH]2)c(OC)c1,4.02
17,COc1ccc(/C=C2\CCCc3c2nc2ccc(C)cc2c3C(=O)O)cc1O,19.6
18,CCc1nn(CC(=O)NCCCN2CCN(C)CC2)c(=O)c2cc3occc3n12,7.67
19,O=C1C2CC=CCC2C(=O)N1c1ccc(NCCc2ccccc2)c([N+](=O)[O-])c1 (centres unmarked),23.8
20,Cc1c(C(=O)Nc2ccc(-c3nnc4n3CCCCC4)cc2)oc2ccc(Br)cc12,1.78
21,COc1ccc(N2CC(C(=O)N3CCC4(CC3)CC(=O)c3ccccc3O4)CC2=O)cc1 (centres unmarked),-78.1
22,O=S(=O)(Nc1ccc(-c2ccc3nncn3n2)cc1)c1ccc(Cl)s1,-19.2
23,O=C(O)CCN=C1CCCc2ccccc2N1,7.26

row,Structure (SMILES),"hERG current change (%, negative = inhibition) at 10uM [%]"
1,COc1cc(C)nc(-c2csc(C)n2)n1,8.2
2,CC(Cc1ccccc1)N1C(=O)c2cccc([N+](=O)[O-])c2C1=O (centres unmarked),4.75
3,C=CCN(CC=C)CC(=O)Nc1cccc(Oc2cnccn2)c1,10.6
4,COc1ccccc1C(=O)NC(=O)COC(=O)C1(C)CC1(Cl)Cl (centres unmarked),4.86
5,OCc1ccnc2c(O)cccc12,10.2
6,COC(=O)c1[nH]c2ccc(Br)cc2c1NC(=O)CN1CCCc2ccccc21,-4.4
7,CSCC(=O)N1CCC(CCC(=O)NC2CC2)CC1,21.5
8,CCOC(=O)c1c(-c2ccccc2)csc1NC(=O)COc1ccc2c(C)cc(=O)oc2c1,15.7
9,O=C(Nc1ccccc1)N1CCCC1,-0.806
10,COC(=O)CCC(=O)N(CCN(Cc1ccccc1)C(=O)CCC(=O)OC)Cc1ccccc1,-13.5
11,CCOC(=O)C1=C(N)n2c(s/c(=C\c3cccnc3)c2=O)=C(C(=O)OC)C1c1cccnc1 (centres unmarked),-10.3
12,CC(=O)c1cccc(NC(=S)NC(=O)c2ccccc2Br)c1,10.9
13,Cc1cc(NC(=O)COC(=O)C(C)Oc2ccc(Cl)cc2Cl)no1 (centres unmarked),12.2
14,CCS(=O)(=O)c1ccc2oc(Nc3ccc(OC)c(OC)c3)nc2c1,8.05
15,O=C(NCc1ccccn1)c1c(Cl)cccc1Cl,2.78
16,COc1ccc(OC)c(-c2cc(C(=O)N3CCc4ccccc4C3)no2)c1,11.3
17,CC(NCc1ccc(S(N)(=O)=O)cc1)C(=O)N1CCc2ccccc21 (centres unmarked),5.05
18,Cc1ccc2[nH]c3c(N4CCOCC4)ncnc3c2c1,-0.757
19,Cc1cc(C(=O)NCc2ccc(F)cc2)n(-c2ccccc2)n1,-3.69
20,C/C(=N/O)c1cc(C(C)(C)C)c(O)c(C(C)(C)C)c1,14.6
21,COc1ccc(S(=O)(=O)c2c(O)c3ccc(C(=O)Nc4ccccc4F)cc3[nH]c2=O)cc1,-0.579
22,OCCN1CCN(C(=S)NCCc2ccccc2)CC1,16.3
23,O=C1C=C(NCCN2CCOCC2)CC(c2ccccc2)C1 (centres unmarked),-6.99

row,Structure (SMILES),"hERG current change (%, negative = inhibition) at 10uM [%]"
1,Cc1ccc(C(=O)Nc2nnc(CC(=O)N/N=C/c3ccc(O)c(O)c3)s2)cc1,26
2,CC(=O)N1CN(C2CCS(=O)(=O)C2)Cc2c1sc1c2CCCC1 (centres unmarked),6.57
3,O=C1C=C(c2ccc(Cl)cc2)OC2(CCCC2)O1,-26.2
4,COC(=O)C1=C(c2cccc(OC)c2OC)C[C@@H]2CC[C@H]1N2C(=O)NCC1CC1,0.266
5,CCCCCCOc1ccc(N2C(=O)CC(N3CCN(CCN=CC4=C(O)CC(C)(C)CC4=O)CC3)C2=O)cc1 (centres unmarked),-33.1
6,COc1ccc(Nc2nc3ccccc3c(=O)[nH]2)cc1,-0.539
7,COc1ccc2c(c1)CC/C2=N\OC(=O)c1cccc(C)c1,5.29
8,CC(=O)c1c(C)[nH]c(C(=O)N2CCN(c3cc(Cl)ccc3C)CC2)c1C,19
9,O=C(COC(=O)CNC(=O)c1ccc(Cl)cc1Cl)NC(=O)NCc1ccccc1,13.8
10,COc1ccc(OC)c(S(=O)(=O)N2CCC(C(=O)Nc3cccc(C)c3C)CC2)c1,10
11,Cc1cccc(-c2n[nH]c(S(C)(=O)=O)c2C#N)c1,-0.0424
12,C/C(=N\Nc1nc2ccccc2nc1C)c1ccccc1O,3.61
13,CSc1nc(NCc2ccco2)c2ccccc2n1,2.5
14,CCC1CCCCN1CC(=O)c1c(C)[nH]c2ccc(OC)cc12 (centres unmarked),-20.6
15,C=CCNC(=O)c1cc2cccc(OC)c2oc1=O,34.2
16,CCOC(=O)c1sc(Nc2ccc(F)cc2)nc1C,14.7
17,CCOC(=O)CC(=O)CSc1nc2c(sc(=S)n2-c2ccc(C)c(C)c2)c(=O)[nH]1,-10.7
18,Cc1c(C(=O)N(C)C(C)c2ccncn2)oc2c(F)cccc12 (centres unmarked),-0.356
19,O=C(Nc1ccc(S(=O)(=O)Nc2nccs2)cc1)C1=NN(c2ccccc2)C(=O)CC1,17.8
20,Cc1ccc(Cl)cc1N(C)C(=O)Cn1ncc2c([nH]c3ccccc32)c1=O,18.4

# From paper PMC4336329 (PLoS ONE, 2015)
